{
  "source": "PubChem BioAssay (NCATS)",
  "key": {"[1]": {"assay": "Viability qHTS for spleen associated tyrosine kinase inhibitor (SYKi) naive MV4-11 cells (AID 1963823); note: potency is the fitted concentration of half-maximal effect; nearly all actives have a fitted effect of over 40% in size", "conditions": "MV4-11 AML viability, CellTiter-Glo luminescence, 72 h; viability (% of control): at 45 µM (top of the series)", "in_short": "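Read-out: CellTiter-Glo luminescence. Exposure: 72 hr, 37 C, 5% CO2, 95% humidity. Cells: MV4-11 without SYK inhibitor history, 500/well, qHTS format.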"}, "[2]": {"assay": "Viability qHTS for spleen associated tyrosine kinase inhibitor (SYKi) drug resistant MV4-11 cells (AID 1963824); note: potency is the fitted concentration of half-maximal effect; nearly all actives have a fitted effect of over 35% in size", "in_short": "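SYK-inhibitor-resistant MV4-11 AML cells were seeded at 500 per well onto compound and cultured 72 hours (37 °C, 5% CO2). CellTiter-Glo was then added, and after 10 min at room temperature, luminescence gave viability.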"}, "[3]": {"assay": "Quantitative highthroughput screen to assess conditional lethalithy of SEM cells grown in RPMI1640 with unreated serum (RPMI+s) (AID 1963883); note: nearly all actives have a fitted effect of over 35% in size; note: potency is the fitted concentration of half-maximal effect;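 for Viability: 100% = DMSO wells and 0% = empty wells without cells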", "conditions": "SEM B-ALL cells, CellTiter-Glo viability, 48 h; viability: at 45.8 µM (top of the series)", "in_short": "(§1)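 Each medium arm—HPLM with 10% dialyzed FBS, or RPMI1640 with 5 mM glucose and 10% untreated or dialyzed FBS—was screened against an 11-point, 3-fold compound titration for 48 h at 37 °C, with CellTiter-Glo luminescence as endpoint.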"}, "[4]": {"assay": "Cellular viability qHTS for adrenocortical cancer (ACC) cell line SW-13 (AID 1963989)", "conditions": "SW-13 ACC cells viability, CellTiter-Glo, 48 h; activity (max response): hits give low values", "in_short": "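Viability was read as CellTiter-Glo luminescence after 48 h compound treatment (up to 46 uM final) of SW-13 cells grown serum-free; titration curves were fit with a four-parameter logistic model to give IC50 and efficacy.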"}, "[5]": {"assay": "Quantitative highthroughput screen to assess conditional lethalithy of SEM cells grown in RPMI1640 with dialyzed fetal bovine serum (RPMI+ds) (AID 1963884)", "conditions": "SEM B-ALL cells, RPMI+dialyzed FBS, CellTiter-Glo viability, 48 h; viability: at 45.8 µM (top of the series)", "in_short": "as §1"}, "[6]": {"assay": "Cellular viability qHTS for adrenocortical cancer (ACC) cell line NCI-H295R (AID 1963990)", "conditions": "CellTiter-Glo ATP luminescence, 48 h; activity change, negative = viability loss: at 46.1 µM (top of the series)", "in_short": "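CellTiter-Glo ATP luminescence, read 48 h after compound addition, measured viability of NCI-H295R adrenocortical cells grown serum-free with ITS. Final concentrations spanned up to 46 uM. Data normalized to DMSO and doxorubicin, fitted for IC50 and maximal response.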"}, "[7]": {"assay": "Quantitative highthroughput screen to assess conditional lethalithy of SEM cells grown in Human Plasma-Like Medium with dialyzed fetal bovine serum (HPLM+ds) (AID 1963882)", "in_short": "as §1"}},
  "note": "“And” between values parts separate entries of the source, which are not always exact repeats. Equal entries are not always repeated. This list was built around the results that the source calls inconclusive (neither active nor inactive); the mix of calls is not that of the screen. For part of these data: Potencies beside an inconclusive call are fits to weak or partial responses and may not hold up. The source made the active and inactive calls. Calls come from the whole dose curve; as a rule, active = well fitted curve in the direction sought with a large enough effect; inconclusive = small, poorly fitted or top-dose-only effect, or another doubt; inactive = no such curve, though single readings can be large; an effect the other way counts as inactive or inconclusive. Tags give direction and shape of the fitted curve. Throughout, for Viability: nearly all actives have a fitted effect of over 35% in size. Throughout, for activity (max response): % is set by controls: 0 for no effect and ±100 for the full control effect. Throughout, for activity (max response): nearly all actives have a fitted effect of over 65% in size.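 Throughout, for activity change, negative = viability loss: 0% = DMSO only wells and -100% = full killing with cytotoxic reference compound; nearly all actives have a fitted effect of over 60% in size.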",
  "data": [
    {"smiles": "Cc1ccc(C(=O)c2cc(O)c(O)c([N+](=O)[O-])c2)cc1", "values": [
      {"measurement": "Potency", "setting": "[1]", "value": "inconclusive: 11.9 µM [cytotoxic, partial curve]"},
      {"measurement": "Potency", "setting": "[2]", "value": "inconclusive: 15 µM [cytotoxic, partial curve, poor fit]"},
      {"measurement": "Potency", "setting": "[3]", "value": "inactive"},
      {"measurement": "Potency", "setting": "[4]", "value": "inconclusive: 29.1 µM [cytotoxic, single point] and inconclusive: 31.6 µM [cytotoxic, single point]"}
    ]},
    {"smiles": "COc1ccc(-n2c(C)c([N+](=O)[O-])c3ccc(O)cc32)cc1", "values": [
      {"measurement": "Potency", "setting": "[1]", "value": "inconclusive: 4.68 µM [cytotoxic, full curve]"},
      {"measurement": "Potency", "setting": "[2]", "value": "inconclusive: 4.17 µM [cytotoxic, full curve]"},
      {"measurement": "Potency", "setting": "[3]", "value": "inactive"},
      {"measurement": "Potency", "setting": "[5]", "value": "inactive"},
      {"measurement": "Potency", "setting": "[6]", "value": "inactive"}
    ]},
    {"smiles": "CCCNC(=O)Nc1ccc(Oc2ncnc3cc(OC)c(OC)cc23)cc1Cl", "values": [
      {"measurement": "Potency", "setting": "[1]", "value": "inconclusive: 2.06 µM [cytotoxic, full curve]"},
      {"measurement": "Potency", "setting": "[2]", "value": "active: 0.517 µM"},
      {"measurement": "Potency", "setting": "[7]", "value": "inconclusive: 23.5 µM [cytotoxic, single point]"},
      {"measurement": "Potency", "setting": "[3]", "value": "inconclusive: 18.7 µM [cytotoxic, partial curve, poor fit]"},
      {"measurement": "Potency", "setting": "[5]", "value": "inconclusive: 18.7 µM [cytotoxic, partial curve]"},
      {"measurement": "Potency", "setting": "[6]", "value": "inactive"}
    ]},
    {"smiles": "Cc1cc(F)c(C(=O)Nc2cccc(-c3nncn3C(C)C)n2)cc1-n1cnc(C2CC2)c1", "values": [
      {"measurement": "Potency", "setting": "[1]", "value": "active: 5.25 µM"},
      {"measurement": "Potency", "setting": "[2]", "value": "active: 5.25 µM"},
      {"measurement": "Potency", "setting": "[4]", "value": "inconclusive: 25.1 µM [cytotoxic, partial curve]"}
    ]},
    {"smiles": "CCOC(N)=O", "values": [
      {"measurement": "Potency", "setting": "[1]", "value": "inconclusive: 0.0019 µM [rising, full curve, poor fit]"},
      {"measurement": "Potency", "setting": "[2]", "value": "inconclusive: 0.0335 µM [rising, full curve, poor fit]"},
      {"measurement": "activity (max response)", "setting": "[4]", "value": "inactive: 11.5%"}
    ]}
  ]
}
